Experimental data taken from PMC6212790.
Some of the results follow. At the low end of the ranking, values are background and their order means little.

biological target: T1, GST-Rok (full length) (UniProt O34857); assay: protein binding microarray; conditions: Rok is a gene silencer of Bacillus subtilis; high values mean tight binding; most listed sequences are background and not binding sites; double strand, one strand shown;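 also: rank score from −0.5 (least bound) to 0.5 (best bound)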
T1 sequence: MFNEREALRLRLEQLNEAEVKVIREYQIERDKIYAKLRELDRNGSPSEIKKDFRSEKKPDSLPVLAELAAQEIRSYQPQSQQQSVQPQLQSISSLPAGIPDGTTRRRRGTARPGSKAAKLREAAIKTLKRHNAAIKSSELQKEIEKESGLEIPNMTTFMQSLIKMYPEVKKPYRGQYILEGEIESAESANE

Row | Sequence | binding signal [E-score]
1 | GCGTTTGA | -0.0776
2 | CGACCACC | -0.23
3 | ACCCTTCG | -0.264
4 | ATCTGTCA | -0.194
5 | GAGCGAGA | -0.17
6 | CATCGTGG | -0.16
7 | GAACGACA | 0.108
8 | CGCCCGGC | -0.448
9 | CTCTTTCA | -0.0325
10 | ACCGGCCC | -0.212
11 | CATCCCTC | -0.341
12 | CGGGCACG | -0.221
13 | TACATTAA | 0.26
14 | TATCTCGA | 0.209
15 | CAAGAGCC | -0.306
16 | CGACGGTA | 0.136
17 | AGCTGTTC | 0.0695
18 | CTATACCC | 0.0163
19 | GCACGCCA | -0.0206
20 | AGGTAGAC | 0.191
21 | GCTAGATA | 0.342
22 | TCGCGTCA | -0.0924
23 | ACTCTAAT | 0.176
24 | AACCGATC | 0.102

Row | Sequence | binding signal [E-score]
25 | ACGCAACT | 0.151
26 | ATCAGGAG | -0.132
27 | AAAAACTG | -0.16
28 | ACTCCTGC | -0.0912
29 | ACCTATGG | -0.177
30 | ATGCCTGA | -0.0706
31 | CCTGCTGA | -0.0558
32 | AGCGGGTC | -0.172
33 | CCGACACA | 0.0303
34 | CTTTCCCC | -0.209
35 | AATCCTCG | -0.304
36 | GGTAGGTA | 0.304
37 | ACCGCGTG | -0.248
38 | ACTCAGGG | 0.0572
39 | AGGCCAAT | -0.184
40 | CCCATCAA | -0.0624
41 | CCGGAACG | -0.14
42 | GAAGATCA | -0.0359
43 | ACCAAAAT | 0.0829
44 | CACCGCTG | -0.0431
45 | CATTAACA | 0.116
46 | CCCTCTAA | -0.121
47 | AAACCTGA | -0.0928
48 | GTTGCCGA | -0.0998

Row | Sequence | binding signal [E-score]
49 | ACTTACCG | 0.239
50 | CTAGGTAA | 0.16
51 | AGCGAAGG | -0.207
52 | CAGTGATC | -0.166
53 | GTAAACCA | 0.159
54 | AGGATTGG | -0.238
55 | ATTCCCTC | -0.0733
56 | CTGCGTTA | -0.126
57 | GGGTTTAC | -0.0396
58 | GACGCCGA | -0.235
59 | ACCTCCGG | -0.153
60 | CTCCCCAG | -0.37
61 | CCCTATCA | 0.00383
62 | CATAGTCC | -0.169
63 | GCGAGCAA | -0.0525
64 | GGTGACAA | -0.0428
65 | CGACGTCG | -0.259
66 | GCGCCTCC | -0.312
67 | ACCTCCAC | -0.156
68 | AAGGTTAA | 0.0104
69 | CGCCCTAA | -0.0921
70 | ATAACTCA | 0.191
71 | CATAGATC | 0.15
72 | AGCCACCC | -0.375

Row | Sequence | binding signal [E-score]
73 | GGTCATAC | -0.0197
74 | CCGCTTTC | -0.101
75 | AACTTCAA | 0.167
76 | ATCAGATG | 0.148
77 | AGAGAATG | 0.0945
78 | CCCCCAAC | -0.337
79 | CGCTTACC | -0.136
80 | ATGGCTAA | 0.0615
81 | ATACAGAC | 0.0104
82 | CGTCACCC | -0.367
83 | CTGAATGA | -0.06
84 | AAGAGCAG | -0.162
85 | AAGTCCAC | -0.189
86 | AACGTTGT | 0.217
87 | ACCAGACG | -0.115
88 | ACGCAGGC | -0.33
89 | AGCGCGGC | -0.0873
90 | GGGTTCGA | -0.0956
91 | TCTATAGA | 0.36
92 | ACCGGCAG | -0.0541
93 | GAGGGTAC | -0.3
94 | AGAACCGA | 0.0539
